Like-named read-outs stand apart in the source and are kept apart here.
Key:
[1] = test system: Mouse Renal Ornithine Decarboxylase (ODC) Activity; format: in vivo; conditions: for % Inhibition of ODC Activity: with TP 0.1 mg/mouse/day s.c.; for inhibition of TP-induced ODC activity (in words): testosterone propionate 0.1 mg/mouse
[2] = test system: Mouse Renal Ornithine Decarboxylase (ODC) Activity; format: in vivo

| SMILES | % Inhibition of ODC Activity ([1]; 1 mg/mouse, 1 day p.o.) [%] | % Inhibition of ODC Activity ([1]; 1 mg/mouse, 1 day s.c.) [%] | inhibition of TP-induced ODC activity (in words) [1] | also measured |
| --- | --- | --- | --- | --- |
| CC12CCCN1c1cc3[nH]c(=O)c(F)c(C(F)(F)F)c3cc1CC2 (racemic) [Compound 102, (R/S)-3-Fluoro-6,7,7a,11-tetrahydro-7a-methyl-4-trifluoromethyl-2-pyridono[5,6-g]pyrrolidino[1,2-a]quinoline] | −5.2 | – | – | – |
| Cn1c(=O)c(F)c(C(F)(F)F)c2cc3c(cc21)NC(C)(C)CC3 [Compound 107, 7-Fluoro-1,2,3,4-tetrahydro-2,2,9-trimethyl-6-trifluoromethyl-8-pyridono[5,6-g]quinoline] | 42 | 72 | – | – |
| CCC(=O)O[C@H]1CC[C@H]2[C@@H]3CCC4=CC(=O)CC[C@]4(C)[C@H]3CC[C@]12C [Testosterone Propionate, Testosterone propionate] | – | – | – | increase in ODC activity compared to castrated controls ([2]; 1.0 mg/mouse/day): 700 fold |
| CC(C)C(=O)Nc1ccc([N+](=O)[O-])c(C(F)(F)F)c1 [Flutamide, 2-methyl-N-[4-nitro-3-(trifluoromethyl)phenyl]propanamide] | 37.7 | 88.3 | inhibited this induction | % Inhibition of ODC Activity ([1]; 1 mg/mouse, 3 days p.o.): 60.7%; % Inhibition of ODC Activity ([1]; 3 mg/mouse, 1 day s.c.): 98.1%; % Inhibition of ODC Activity ([1]; 3 mg/mouse, 3 days p.o.): 92.0% |
| CC(=O)O[C@]1(C(C)=O)CC[C@H]2[C@@H]3C=C(Cl)C4=CC(=O)[C@@H]5C[C@@H]5[C@]4(C)[C@H]3CC[C@@]21C [Cyproterone acetate, cyproterone acetate] | – | – | inhibited this induction | – |
| CCC1(CC)CCc2cc3c(C(F)(F)F)c(F)c(=O)[nH]c3cc2N1 [Compound 120, 2,2-Diethyl-7-fluoro-1,2,3,4-tetrahydro-6-trifluoromethyl-8-pyridono[5,6-g]quinoline] | 46 | 52 | – | – |
| CC(=O)[C@H]1CC[C@H]2[C@@H]3CCC4=CC(=O)CC[C@]4(C)[C@H]3CC[C@]12C [Prog, progesterone] | – | – | – | stimulatory activity on renal ODC (in words) ([2]; estradiol 0.02 mg/mouse, progesterone 1 mg/mouse): did not show any stimulatory activity |
| CC(O)(CS(=O)(=O)c1ccc(F)cc1)C(=O)Nc1ccc(C#N)c(C(F)(F)F)c1 (stereo not drawn) [Casodex] | – | – | inhibited this induction | – |

Source: patent publication US6534516B1, “Androgen receptor modulator compounds and methods” (Ligand Pharmaceuticals Incorporated, priority 1996, dated 2003)
